Measurements published in the supplement of paper PMC8728848.
Some of the results follow.

Assays:
Assay in all cases: glycan array binding signal (z-score within array); higher = stronger binding
Details in all cases: glycan notation: IUPAC condensed, linker removed
[1] = molecular target: Fuc(a1-2)[GalNAc(b1-3)]Gal
Method in brief: (§1)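 Arrays were curated from the Consortium for Functional Glycomics database, 3228 in total, and kept only where the protein sequence was available. Binding is expressed as a within-array Z-score. This score was averaged across arrays of the same protein sequence at different concentrations or buffers and across linkers, and negative values can be read as non-binding.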

Fuc(a1-3)GlcNAc = molecular target: Fuc(a1-3)GlcNAc
Method in brief: as §1

[2] = molecular target: Fuc(a1-3)[Gal(b1-4)]Glc6S
Method in brief: as §1

[3] = molecular target: Fuc(a1-3)[Gal(b1-4)]GlcNAc
Method in brief: as §1

[4] = molecular target: Fuc(a1-3)[Gal(b1-4)]GlcNAc(b1-2)Man
Method in brief: as §1

[5] = molecular target: Fuc(a1-3)[Gal(b1-4)]GlcNAc(b1-2)Man(a1-3)[Fuc(a1-3)[Gal(b1-4)]GlcNAc(b1-2)Man(a1-6)]Man(b1-4)GlcNAc(b1-4)GlcNAc
Method in brief: as §1

[6] = molecular target: Fuc(a1-3)[Gal(b1-4)]GlcNAc(b1-2)Man(a1-3)[Fuc(a1-3)[Gal(b1-4)]GlcNAc(b1-2)Man(a1-6)]Man(b1-4)GlcNAc(b1-4)[Fuc(a1-6)]GlcNAc
Method in brief: as §1

[7] = molecular target: Fuc(a1-3)[Gal(b1-4)]GlcNAc(b1-3)Gal(b1-3)[Fuc(a1-4)]GlcNAc
Method in brief: as §1

[8] = molecular target: Fuc(a1-3)[Gal(b1-4)]GlcNAc(b1-3)Gal(b1-4)[Fuc(a1-3)]GlcNAc
Method in brief: as §1

[9] = molecular target: Fuc(a1-3)[Gal(b1-4)]GlcNAc(b1-3)Gal(b1-4)[Fuc(a1-3)]GlcNAc(b1-3)Gal(b1-4)[Fuc(a1-3)]GlcNAc
Method in brief: as §1

[10] = molecular target: Fuc(a1-3)[Gal(b1-4)]GlcNAc(b1-3)GalNAc
Method in brief: as §1

[11] = molecular target: Fuc(a1-3)[Gal(b1-4)]GlcNAc(b1-6)GalNAc
Method in brief: as §1

[12] = molecular target: Fuc(a1-3)[Gal(b1-4)]GlcNAc(b1-6)[Gal(b1-3)GlcNAc(b1-3)]Gal(b1-4)Glc
Method in brief: as §1

[13] = molecular target: Fuc(a1-3)[Gal(b1-4)]GlcNAc6S
Method in brief: as §1

[14] = molecular target: Fuc(a1-3)[Gal3S(b1-4)]Glc
Method in brief: as §1

[15] = molecular target: Fuc(a1-3)[Gal3S(b1-4)]GlcNAc
Method in brief: as §1

[16] = molecular target: Fuc(a1-3)[Gal3S(b1-4)]GlcNAc6S
Method in brief: as §1

[17] = molecular target: Fuc(a1-3)[GalNAc(b1-4)]GlcNAc
Method in brief: as §1

[18] = molecular target: Fuc(a1-3)[GalNAc(b1-4)]GlcNAc6S
Method in brief: as §1

Fuc(a1-4)GlcNAc = molecular target: Fuc(a1-4)GlcNAc
Method in brief: as §1

Fuc(b1-3)GlcNAc = molecular target: Fuc(b1-3)GlcNAc
Method in brief: as §1

Gal(a1-2)Gal = molecular target: Gal(a1-2)Gal
Method in brief: as §1

Gal(a1-3)Gal = molecular target: Gal(a1-3)Gal
Method in brief: as §1

Gal(a1-3)Gal(b1-3)GlcNAc = molecular target: Gal(a1-3)Gal(b1-3)GlcNAc
Method in brief: as §1

[19] = molecular target: Gal(a1-3)Gal(b1-3)GlcNAc(b1-2)Man
Method in brief: as §1

[20] = molecular target: Gal(a1-3)Gal(b1-3)GlcNAc(b1-2)Man(a1-3)[Gal(a1-3)Gal(b1-3)GlcNAc(b1-2)Man(a1-6)]Man(b1-4)GlcNAc(b1-4)GlcNAc
Method in brief: as §1

[21] = molecular target: Gal(a1-3)Gal(b1-3)GlcNAc(b1-3)GalNAc
Method in brief: as §1

[22] = molecular target: Gal(a1-3)Gal(b1-3)GlcNAc(b1-6)GalNAc
Method in brief: as §1

[23] = molecular target: Gal(a1-3)Gal(b1-3)[Fuc(a1-4)]GlcNAc(b1-2)Man(a1-3)[Gal(a1-3)Gal(b1-3)[Fuc(a1-4)]GlcNAc(b1-2)Man(a1-6)]Man(b1-4)GlcNAc(b1-4)GlcNAc
Method in brief: as §1

Gal(a1-3)Gal(b1-4)Glc = molecular target: Gal(a1-3)Gal(b1-4)Glc
Method in brief: as §1

Gal(a1-3)Gal(b1-4)GlcNAc = molecular target: Gal(a1-3)Gal(b1-4)GlcNAc
Method in brief: as §1

[24] = molecular target: Gal(a1-3)Gal(b1-4)GlcNAc(b1-2)Man
Method in brief: as §1

[25] = molecular target: Gal(a1-3)Gal(b1-4)GlcNAc(b1-2)Man(a1-3)[Gal(a1-3)Gal(b1-4)GlcNAc(b1-2)Man(a1-6)]Man(b1-4)GlcNAc(b1-4)GlcNAc
Method in brief: as §1

[26] = molecular target: Gal(a1-3)Gal(b1-4)GlcNAc(b1-3)GalNAc
Method in brief: as §1

[27] = molecular target: Gal(a1-3)Gal(b1-4)GlcNAc(b1-6)GalNAc
Method in brief: as §1

[28] = molecular target: Gal(a1-3)Gal(b1-4)[Fuc(a1-3)]GlcNAc
Method in brief: as §1

[29] = molecular target: Gal(a1-3)Gal(b1-4)[Fuc(a1-3)]GlcNAc(b1-2)Man(a1-3)[Gal(a1-3)Gal(b1-4)[Fuc(a1-3)]GlcNAc(b1-2)Man(a1-6)]Man(b1-4)GlcNAc(b1-4)GlcNAc
Method in brief: as §1

Gal(a1-3)GalNAc = molecular target: Gal(a1-3)GalNAc
Method in brief: as §1

[30] = molecular target: Gal(a1-3)[Gal(a1-4)]Gal(b1-4)GlcNAc
Method in brief: as §1

[31] = molecular target: Gal(a1-4)Gal(b1-3)GlcNAc(b1-2)Man(a1-3)[Gal(a1-4)Gal(b1-3)GlcNAc(b1-2)Man(a1-6)]Man(b1-4)GlcNAc(b1-4)GlcNAc
Method in brief: as §1

Gal(a1-4)Gal(b1-4)Glc = molecular target: Gal(a1-4)Gal(b1-4)Glc
Method in brief: as §1

Gal(a1-4)Gal(b1-4)GlcNAc = molecular target: Gal(a1-4)Gal(b1-4)GlcNAc
Method in brief: as §1

[32] = molecular target: Gal(a1-4)Gal(b1-4)GlcNAc(b1-2)Man(a1-3)[Gal(a1-4)Gal(b1-4)GlcNAc(b1-2)Man(a1-6)]Man(b1-4)GlcNAc(b1-4)GlcNAc
Method in brief: as §1

[33] = molecular target: Gal(a1-4)Gal(b1-4)GlcNAc(b1-3)Gal(b1-4)Glc
Method in brief: as §1

Gal(a1-4)GlcNAc = molecular target: Gal(a1-4)GlcNAc
Method in brief: as §1

B1: PhoSpL (Pholiota squarrosa) (peptide)
chain: APVPVTKLVCDGDTYKCTAYLDFGDGRWVAQWDTNVFHTG
- glycan array binding signal (z-score) [1]: -0.219
- glycan array binding signal (z-score) (Fuc(a1-3)GlcNAc): -0.427
- glycan array binding signal (z-score) [2]: -0.01
- glycan array binding signal (z-score) [3]: -0.102
- glycan array binding signal (z-score) [4]: -0.336
- glycan array binding signal (z-score) [5]: -0.201
- glycan array binding signal (z-score) [6]: 0.115
- glycan array binding signal (z-score) [7]: 0.149
- glycan array binding signal (z-score) [8]: 0.155
- glycan array binding signal (z-score) [9]: -0.179
- glycan array binding signal (z-score) [10]: -0.025
- glycan array binding signal (z-score) [11]: -0.044
- glycan array binding signal (z-score) [12]: 0.04
- glycan array binding signal (z-score) [13]: -0.386
- glycan array binding signal (z-score) [14]: -0.011
- glycan array binding signal (z-score) [15]: -0.157
- glycan array binding signal (z-score) [16]: -0.255
- glycan array binding signal (z-score) [17]: 0.075
- glycan array binding signal (z-score) [18]: -0.004
- glycan array binding signal (z-score) (Fuc(a1-4)GlcNAc): -0.128
- glycan array binding signal (z-score) (Fuc(b1-3)GlcNAc): -0.271
- glycan array binding signal (z-score) (Gal(a1-2)Gal): -0.168
- glycan array binding signal (z-score) (Gal(a1-3)Gal): 0.196
- glycan array binding signal (z-score) (Gal(a1-3)Gal(b1-3)GlcNAc): -0.254
- glycan array binding signal (z-score) [19]: -0.221
- glycan array binding signal (z-score) [20]: 0.324
- glycan array binding signal (z-score) [21]: -0.303
- glycan array binding signal (z-score) [22]: -0.023
- glycan array binding signal (z-score) [23]: -0.042
- glycan array binding signal (z-score) (Gal(a1-3)Gal(b1-4)Glc): 0.101
- glycan array binding signal (z-score) (Gal(a1-3)Gal(b1-4)GlcNAc): -0.143
- glycan array binding signal (z-score) [24]: -0.259
- glycan array binding signal (z-score) [25]: -0.429
- glycan array binding signal (z-score) [26]: 0.034
- glycan array binding signal (z-score) [27]: -0.433
- glycan array binding signal (z-score) [28]: -0.533
- glycan array binding signal (z-score) [29]: 0.563
- glycan array binding signal (z-score) (Gal(a1-3)GalNAc): -0.292
- glycan array binding signal (z-score) [30]: -0.257
- glycan array binding signal (z-score) [31]: -0.039
- glycan array binding signal (z-score) (Gal(a1-4)Gal(b1-4)Glc): -0.062
- glycan array binding signal (z-score) (Gal(a1-4)Gal(b1-4)GlcNAc): -0.29
- glycan array binding signal (z-score) [32]: 0.1
- glycan array binding signal (z-score) [33]: -0.466
- glycan array binding signal (z-score) (Gal(a1-4)GlcNAc): 0.167
